Assay results published in PMC7771853, “Differential effects of novel kappa opioid receptor antagonists on dopamine neurons using acute brain slice electrophysiology” (PLoS ONE, 2020).

What was measured:
[1] = molecular target: T1, kappa opioid receptor (KOR) in VTA dopamine neurons (Rattus norvegicus, UniProt P34975); test: Blockade of U-69,593 induced outward current, whole cell electrophysiology in acute rat midbrain slices; format: cell-based; details: for lower asymptote of the fit, % of baseline U-69,593 response: concentration response fit, maximum blockade
T1 sequence (P34975 whole entry): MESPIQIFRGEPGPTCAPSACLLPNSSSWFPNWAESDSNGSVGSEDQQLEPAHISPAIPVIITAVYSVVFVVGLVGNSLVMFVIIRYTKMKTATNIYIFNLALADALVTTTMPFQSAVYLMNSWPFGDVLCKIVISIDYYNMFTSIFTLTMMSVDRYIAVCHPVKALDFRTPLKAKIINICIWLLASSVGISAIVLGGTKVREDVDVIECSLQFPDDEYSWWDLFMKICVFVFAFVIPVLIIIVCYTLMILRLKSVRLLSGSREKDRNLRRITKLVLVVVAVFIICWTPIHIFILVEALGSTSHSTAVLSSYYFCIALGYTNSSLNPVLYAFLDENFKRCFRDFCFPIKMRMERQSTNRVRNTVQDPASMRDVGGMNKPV

mu opioid receptor (MOR) = details: 10 nM antagonist, DAMGO 10 μM pressure ejected
[2] = test system: delta opioid receptor (DOR); details: 10 nM antagonist, DPDPE 10 μM pressure ejected
[3] = molecular target: T1, kappa opioid receptor (KOR) in VTA dopamine neurons; details: probed 10 and/or 20 min after washout commenced; norBNI 100 nM

Structure (SMILES)	neurons responding to U-69,593 with an inward current in presence of antagonist ([1]; 1 μM antagonist)	lower asymptote of the fit, % of baseline U-69,593 response [1]	effect on responses to DAMGO (mu opioid receptor (MOR))	effect on responses to DPDPE [2]	reversal of U-69,593 blockade on washout [3]
Cc1cc(C)cc([C@@H]2CCCN2Cc2ccc(Oc3ccc(C(N)=O)cc3F)cc2)c1 [JNJ-67953964, (S)-3-fluoro-4-(4-((2-(3,5-dimethylphenyl)pyrrolidin-1-yl)methyl)phenoxy)benzamide]	1 of 2	-27 % of baseline U-69,593 response	consistently decreased	to a smaller extent inhibited	some apparent washout
Oc1ccc2c3c1O[C@H]1c4[nH]c5c(c4C[C@@]4(O)[C@@H](C2)N(CC2CC2)CC[C@]314)C[C@@]1(O)[C@H]2Cc3ccc(O)c4c3[C@@]1(CCN2CC1CC1)[C@H]5O4 [norBNI, norbinaltorphimine]	–	–	–	–	no reversal at 20 min
CC(C)CNCc1ccc(-c2ccccc2S(=O)(=O)N2CCCC2)cc1 [PF-04455242, 2-methyl-N-((2'-(pyrrolidin-1-ylsulfonyl)biphenyl-4-yl)methyl)propan-1-amine]	–	45 % of baseline U-69,593 respons	–	–	persisted through 10 min, but did permit recovery of the U-69,593 effect at 20 min
